We go through 9 molecules from article PMC5303829, “A CAF40-binding motif facilitates recruitment of the CCR4-NOT complex to mRNAs targeted by Drosophila Roquin” (Nature Communications, 2017).

Protein sequences, listed by entry. Tags and fused reporters are not part of them. Lines headed by an entry give the natural chain unless they say otherwise; changes in a name come on top. Chains listed by the source or under a name are the forms on record and can include a tag or linker. Residues count along the entry.
UniProt A5YKK6, residues 1093-2371: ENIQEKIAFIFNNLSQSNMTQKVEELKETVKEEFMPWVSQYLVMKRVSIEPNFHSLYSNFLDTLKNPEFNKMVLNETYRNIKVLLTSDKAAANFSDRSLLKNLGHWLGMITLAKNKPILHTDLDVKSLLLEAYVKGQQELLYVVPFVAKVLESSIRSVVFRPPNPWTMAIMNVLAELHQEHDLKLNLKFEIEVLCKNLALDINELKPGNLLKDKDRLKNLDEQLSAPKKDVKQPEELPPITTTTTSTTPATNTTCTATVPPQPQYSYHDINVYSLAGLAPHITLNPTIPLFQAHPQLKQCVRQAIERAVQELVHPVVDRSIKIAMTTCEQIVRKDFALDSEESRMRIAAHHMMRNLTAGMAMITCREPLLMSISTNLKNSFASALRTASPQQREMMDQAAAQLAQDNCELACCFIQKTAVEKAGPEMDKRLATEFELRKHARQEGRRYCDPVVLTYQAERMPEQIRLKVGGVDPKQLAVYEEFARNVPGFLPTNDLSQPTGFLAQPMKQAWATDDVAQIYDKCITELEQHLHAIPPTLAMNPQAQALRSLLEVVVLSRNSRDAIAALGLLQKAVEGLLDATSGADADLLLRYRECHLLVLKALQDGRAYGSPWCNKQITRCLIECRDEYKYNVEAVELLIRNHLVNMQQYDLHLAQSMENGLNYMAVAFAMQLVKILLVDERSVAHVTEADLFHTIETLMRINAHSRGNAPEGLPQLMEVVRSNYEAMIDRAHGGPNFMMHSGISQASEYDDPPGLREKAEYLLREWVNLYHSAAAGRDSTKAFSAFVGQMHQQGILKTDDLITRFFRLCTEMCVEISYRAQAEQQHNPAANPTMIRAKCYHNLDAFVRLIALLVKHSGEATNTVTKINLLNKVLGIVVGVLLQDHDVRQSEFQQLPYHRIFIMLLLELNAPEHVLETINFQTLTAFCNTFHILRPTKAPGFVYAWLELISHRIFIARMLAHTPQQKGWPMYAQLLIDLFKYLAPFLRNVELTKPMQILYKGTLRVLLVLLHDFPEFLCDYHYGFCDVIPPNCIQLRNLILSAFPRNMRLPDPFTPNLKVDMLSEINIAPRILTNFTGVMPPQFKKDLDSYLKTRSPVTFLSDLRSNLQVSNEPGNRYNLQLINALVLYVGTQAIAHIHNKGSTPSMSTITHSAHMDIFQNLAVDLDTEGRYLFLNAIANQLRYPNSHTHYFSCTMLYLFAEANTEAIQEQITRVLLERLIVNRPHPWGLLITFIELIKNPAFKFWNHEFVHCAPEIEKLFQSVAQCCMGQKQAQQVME
UniProt Q9NZN8, residues 350-540: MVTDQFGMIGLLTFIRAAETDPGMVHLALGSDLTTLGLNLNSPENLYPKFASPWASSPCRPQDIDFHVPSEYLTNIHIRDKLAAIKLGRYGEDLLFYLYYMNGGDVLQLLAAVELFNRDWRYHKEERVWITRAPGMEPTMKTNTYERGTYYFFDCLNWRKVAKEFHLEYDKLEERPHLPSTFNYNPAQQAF
UniProt O75175, residues 607-748: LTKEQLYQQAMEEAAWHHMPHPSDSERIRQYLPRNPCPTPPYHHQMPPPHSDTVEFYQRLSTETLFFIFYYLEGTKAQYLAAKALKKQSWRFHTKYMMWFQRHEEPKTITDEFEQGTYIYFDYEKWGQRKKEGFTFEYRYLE
Hs CAF40 ARM domain Y134D, G141W (Q92600, form named): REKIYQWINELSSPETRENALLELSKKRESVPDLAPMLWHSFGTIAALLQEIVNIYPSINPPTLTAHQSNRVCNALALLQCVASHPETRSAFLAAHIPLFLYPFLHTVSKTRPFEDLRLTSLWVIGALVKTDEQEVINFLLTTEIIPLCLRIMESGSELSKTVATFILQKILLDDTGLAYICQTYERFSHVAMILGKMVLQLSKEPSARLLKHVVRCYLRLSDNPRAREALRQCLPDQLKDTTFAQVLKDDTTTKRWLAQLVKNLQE
Hs CAF40 ARM domain V181E (Q92600, form named): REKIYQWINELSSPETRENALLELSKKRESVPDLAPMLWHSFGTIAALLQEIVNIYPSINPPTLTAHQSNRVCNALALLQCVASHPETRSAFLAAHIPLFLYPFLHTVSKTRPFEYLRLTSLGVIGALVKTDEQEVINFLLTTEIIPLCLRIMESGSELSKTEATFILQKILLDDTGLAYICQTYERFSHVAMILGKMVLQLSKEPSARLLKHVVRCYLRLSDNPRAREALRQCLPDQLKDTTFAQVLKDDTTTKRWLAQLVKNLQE
UniProt A8DY81: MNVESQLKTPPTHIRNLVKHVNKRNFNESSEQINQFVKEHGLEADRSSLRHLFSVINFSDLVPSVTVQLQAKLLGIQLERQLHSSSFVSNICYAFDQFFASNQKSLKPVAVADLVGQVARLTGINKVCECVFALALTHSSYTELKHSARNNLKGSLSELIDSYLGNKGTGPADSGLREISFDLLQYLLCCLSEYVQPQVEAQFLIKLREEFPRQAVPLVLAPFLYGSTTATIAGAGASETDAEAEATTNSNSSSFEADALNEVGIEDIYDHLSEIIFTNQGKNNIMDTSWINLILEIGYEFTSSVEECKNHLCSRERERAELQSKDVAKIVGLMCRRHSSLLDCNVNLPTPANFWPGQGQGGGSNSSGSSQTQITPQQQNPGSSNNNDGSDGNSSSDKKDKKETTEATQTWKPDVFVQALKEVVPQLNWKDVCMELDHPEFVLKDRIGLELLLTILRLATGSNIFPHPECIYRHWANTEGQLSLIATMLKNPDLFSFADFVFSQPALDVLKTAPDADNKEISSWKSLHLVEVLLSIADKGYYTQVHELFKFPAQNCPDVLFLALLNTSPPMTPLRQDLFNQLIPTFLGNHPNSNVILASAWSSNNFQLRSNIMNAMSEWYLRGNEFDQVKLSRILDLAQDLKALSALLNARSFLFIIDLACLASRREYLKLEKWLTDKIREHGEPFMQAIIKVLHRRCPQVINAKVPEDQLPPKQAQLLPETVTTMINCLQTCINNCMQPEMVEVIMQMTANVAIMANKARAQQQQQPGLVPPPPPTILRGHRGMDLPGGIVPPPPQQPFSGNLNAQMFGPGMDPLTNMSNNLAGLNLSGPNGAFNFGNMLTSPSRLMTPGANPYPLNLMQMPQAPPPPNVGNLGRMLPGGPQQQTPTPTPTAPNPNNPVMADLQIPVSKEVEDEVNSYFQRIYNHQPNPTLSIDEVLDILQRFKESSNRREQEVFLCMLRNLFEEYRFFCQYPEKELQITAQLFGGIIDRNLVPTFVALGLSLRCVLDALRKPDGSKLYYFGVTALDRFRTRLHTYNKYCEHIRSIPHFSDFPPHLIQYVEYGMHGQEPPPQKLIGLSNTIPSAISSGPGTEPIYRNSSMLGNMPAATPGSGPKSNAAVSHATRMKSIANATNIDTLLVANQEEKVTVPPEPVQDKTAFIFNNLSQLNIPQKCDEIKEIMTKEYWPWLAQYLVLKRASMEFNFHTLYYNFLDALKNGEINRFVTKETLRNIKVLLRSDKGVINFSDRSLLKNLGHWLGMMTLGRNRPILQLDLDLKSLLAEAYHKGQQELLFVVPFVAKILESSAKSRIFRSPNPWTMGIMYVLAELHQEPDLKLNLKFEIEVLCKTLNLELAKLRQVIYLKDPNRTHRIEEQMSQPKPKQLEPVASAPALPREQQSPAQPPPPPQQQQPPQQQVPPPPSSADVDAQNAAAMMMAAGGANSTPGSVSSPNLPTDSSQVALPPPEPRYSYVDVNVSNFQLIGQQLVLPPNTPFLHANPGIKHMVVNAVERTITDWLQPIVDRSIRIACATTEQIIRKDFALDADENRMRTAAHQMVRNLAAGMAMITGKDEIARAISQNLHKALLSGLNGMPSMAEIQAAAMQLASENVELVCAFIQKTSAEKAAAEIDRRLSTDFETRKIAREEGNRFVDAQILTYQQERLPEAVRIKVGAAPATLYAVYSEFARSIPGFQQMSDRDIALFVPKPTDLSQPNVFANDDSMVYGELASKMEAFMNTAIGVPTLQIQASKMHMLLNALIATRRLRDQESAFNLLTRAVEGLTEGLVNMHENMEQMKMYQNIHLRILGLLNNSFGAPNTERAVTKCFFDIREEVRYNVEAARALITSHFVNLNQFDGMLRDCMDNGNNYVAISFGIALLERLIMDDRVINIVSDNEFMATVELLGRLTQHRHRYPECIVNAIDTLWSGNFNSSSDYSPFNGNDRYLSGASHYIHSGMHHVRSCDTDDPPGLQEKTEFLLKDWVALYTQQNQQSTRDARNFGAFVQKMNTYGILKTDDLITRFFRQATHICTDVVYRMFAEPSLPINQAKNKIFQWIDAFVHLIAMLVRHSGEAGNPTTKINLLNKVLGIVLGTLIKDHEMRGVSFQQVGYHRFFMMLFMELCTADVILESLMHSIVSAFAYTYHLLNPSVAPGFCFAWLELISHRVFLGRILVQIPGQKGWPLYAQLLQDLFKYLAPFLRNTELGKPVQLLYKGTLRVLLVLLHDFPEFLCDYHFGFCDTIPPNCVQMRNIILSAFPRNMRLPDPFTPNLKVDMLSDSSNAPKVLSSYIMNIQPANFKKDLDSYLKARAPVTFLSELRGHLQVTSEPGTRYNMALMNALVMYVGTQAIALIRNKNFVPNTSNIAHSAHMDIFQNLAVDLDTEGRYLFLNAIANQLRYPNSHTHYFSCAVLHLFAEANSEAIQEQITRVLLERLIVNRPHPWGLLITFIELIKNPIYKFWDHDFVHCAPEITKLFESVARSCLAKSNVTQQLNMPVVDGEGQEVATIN

These are yes or no findings as the source states them, for the method shown. For some assays here: Binding seen in cells or lysates may run through a third protein. Some results given as binding are weak or reduced against the parent protein; the word gives no strength. For some assays here: Where a sequence is shown, tags or fusion partners need not be part of it.

For assay [1], the target named is T1, MBP-tagged Dm Roquin NBM alone (Drosophila melanogaster) (UniProt Q9VV48).
T1 sequence: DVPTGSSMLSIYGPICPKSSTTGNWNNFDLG
Put plainly: pull-down; in vitro MBP pulldown: purified MBP-tagged Roquin fragments (40 μg) with equimolar purified CCR4-NOT proteins or subcomplexes on amylose resin; 50 mM HEPES-NaOH pH 7.5, 200 mM NaCl, 2 mM DTT; 1 h; maltose elution, SDS-PAGE, Coomassie; both purified.

For assay [2], the target named is T2, MBP-tagged Dm Roq-CC (Drosophila melanogaster) (UniProt Q9VV48).
T2 sequence: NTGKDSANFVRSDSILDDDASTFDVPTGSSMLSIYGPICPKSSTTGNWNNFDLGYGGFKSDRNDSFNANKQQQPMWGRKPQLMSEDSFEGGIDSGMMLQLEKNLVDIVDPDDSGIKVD
Described as above.

In assay [3] the target is MBP-NOT1 (residues 1093–2371) (human) (UniProt A5YKK6). Put plainly: co-purification of co-expressed proteins; five human proteins co-expressed in E. coli; amylose resin, tag cleavage, HiTrap Heparin, Superdex 200 size exclusion. Background: In gel filtration, larger molecules generally elute earlier.
The target in assay [4] is T3, GFP-tagged Dm Roquin (full-length, wild-type) (Drosophila melanogaster) (UniProt Q9VV48).
T3 sequence: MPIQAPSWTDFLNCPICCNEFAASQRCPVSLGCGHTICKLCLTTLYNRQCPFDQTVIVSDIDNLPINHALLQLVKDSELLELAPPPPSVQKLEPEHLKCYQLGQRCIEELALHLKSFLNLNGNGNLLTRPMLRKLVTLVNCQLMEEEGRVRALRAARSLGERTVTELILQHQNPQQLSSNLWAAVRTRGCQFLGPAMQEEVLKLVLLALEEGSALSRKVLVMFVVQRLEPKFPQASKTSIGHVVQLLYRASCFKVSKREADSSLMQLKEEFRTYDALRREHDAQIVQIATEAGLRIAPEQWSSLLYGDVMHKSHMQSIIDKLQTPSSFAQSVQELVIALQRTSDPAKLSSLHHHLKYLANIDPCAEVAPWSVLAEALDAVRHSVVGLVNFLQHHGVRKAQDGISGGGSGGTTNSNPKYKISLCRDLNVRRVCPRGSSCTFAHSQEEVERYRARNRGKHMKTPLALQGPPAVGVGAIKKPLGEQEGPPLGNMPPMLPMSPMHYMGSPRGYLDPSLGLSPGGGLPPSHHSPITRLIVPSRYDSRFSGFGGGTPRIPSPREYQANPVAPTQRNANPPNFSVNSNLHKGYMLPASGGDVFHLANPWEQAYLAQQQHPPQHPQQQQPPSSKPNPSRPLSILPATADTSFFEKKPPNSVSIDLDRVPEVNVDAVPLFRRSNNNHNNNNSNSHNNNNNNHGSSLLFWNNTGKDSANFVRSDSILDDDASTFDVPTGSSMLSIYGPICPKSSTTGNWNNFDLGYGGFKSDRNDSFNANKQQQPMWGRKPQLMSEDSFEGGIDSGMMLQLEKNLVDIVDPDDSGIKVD
Put plainly: co-IP; GFP-tagged Dm Roquin and HA-tagged deadenylase or decapping factors co-expressed in Dm S2 cells; lysates treated with RNase A; anti-GFP and anti-HA blots.

Assay [5] has as its target T4, GFP-tagged Dm Roquin ΔCBM (Drosophila melanogaster) (UniProt Q9VV48).
T4 sequence: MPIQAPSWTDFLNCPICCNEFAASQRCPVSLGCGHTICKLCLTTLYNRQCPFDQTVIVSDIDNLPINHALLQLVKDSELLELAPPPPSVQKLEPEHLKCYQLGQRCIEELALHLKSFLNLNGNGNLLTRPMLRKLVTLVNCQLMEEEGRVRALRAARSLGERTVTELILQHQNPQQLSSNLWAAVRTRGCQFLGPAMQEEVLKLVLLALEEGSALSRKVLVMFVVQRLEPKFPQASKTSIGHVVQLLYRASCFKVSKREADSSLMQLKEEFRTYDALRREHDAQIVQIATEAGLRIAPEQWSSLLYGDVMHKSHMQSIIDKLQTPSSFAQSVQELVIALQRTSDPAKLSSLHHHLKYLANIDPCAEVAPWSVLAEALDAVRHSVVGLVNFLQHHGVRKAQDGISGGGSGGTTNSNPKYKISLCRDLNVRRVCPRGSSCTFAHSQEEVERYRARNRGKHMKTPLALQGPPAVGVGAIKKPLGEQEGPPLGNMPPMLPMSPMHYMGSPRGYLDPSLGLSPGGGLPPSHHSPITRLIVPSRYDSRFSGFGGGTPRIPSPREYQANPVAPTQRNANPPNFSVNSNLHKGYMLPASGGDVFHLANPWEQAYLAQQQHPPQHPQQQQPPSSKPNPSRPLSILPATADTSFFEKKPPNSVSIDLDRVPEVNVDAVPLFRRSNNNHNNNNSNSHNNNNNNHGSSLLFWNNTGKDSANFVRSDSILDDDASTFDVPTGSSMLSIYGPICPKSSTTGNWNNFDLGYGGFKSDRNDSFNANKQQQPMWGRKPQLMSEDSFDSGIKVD
The assay is described as above.

Assay [6] concerns the target T5, GFP-tagged Dm Roquin ΔNBM (Drosophila melanogaster) (UniProt Q9VV48).
T5 sequence: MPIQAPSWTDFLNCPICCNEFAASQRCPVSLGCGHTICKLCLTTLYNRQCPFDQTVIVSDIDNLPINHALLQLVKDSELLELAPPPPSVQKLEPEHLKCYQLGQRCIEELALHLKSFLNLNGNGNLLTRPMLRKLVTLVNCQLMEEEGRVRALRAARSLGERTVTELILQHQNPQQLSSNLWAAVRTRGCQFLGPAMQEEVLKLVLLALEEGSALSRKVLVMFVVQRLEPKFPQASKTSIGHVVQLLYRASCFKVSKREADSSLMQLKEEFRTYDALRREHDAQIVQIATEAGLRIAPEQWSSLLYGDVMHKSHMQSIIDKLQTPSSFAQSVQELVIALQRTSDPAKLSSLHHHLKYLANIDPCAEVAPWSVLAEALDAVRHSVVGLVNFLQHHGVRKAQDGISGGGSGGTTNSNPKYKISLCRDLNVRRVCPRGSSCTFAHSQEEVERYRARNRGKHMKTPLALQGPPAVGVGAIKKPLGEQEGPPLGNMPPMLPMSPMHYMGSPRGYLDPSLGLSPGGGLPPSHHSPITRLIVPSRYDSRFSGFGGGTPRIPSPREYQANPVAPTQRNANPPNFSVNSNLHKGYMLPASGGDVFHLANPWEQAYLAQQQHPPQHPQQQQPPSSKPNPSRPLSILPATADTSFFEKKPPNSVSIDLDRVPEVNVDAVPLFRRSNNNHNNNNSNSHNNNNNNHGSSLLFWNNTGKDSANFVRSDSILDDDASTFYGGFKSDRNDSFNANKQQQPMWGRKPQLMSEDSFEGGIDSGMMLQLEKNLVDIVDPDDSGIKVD
The assay is described as above.

As to “Hs NOT module (NOT1-SHD, NOT2-C, NOT3-C) (from UniProt A5YKK6 1833-2361; Q9NZN8 350-540; O75175 607-748) (complex)”, in assay [1], the binding entry is reported as “no binding”.
For “Hs CAF40 ARM domain Y134D, G141W (from UniProt Q92600 19-285) (domain or fragment)”, in assay [2], the binding result was “no binding”.
Consider “MBP-NOT2-C (from UniProt Q9NZN8 350-540) (domain or fragment)”, for which the binding result in assay [3] is “binds”.
On to “HA-tagged NOT1 (S2 cells) (from UniProt A8DY81 1-2505)”, for which, in assay [4], the binding result is “binds”.
As to “6xHis-NOT3-C (from UniProt O75175 607-748) (domain or fragment)”, the binding result in assay [3] is given as “binds”.
Take “Hs CAF40 ARM domain V181E (from UniProt Q92600 19-285) (domain or fragment)”: in assay [2], the binding entry was “no binding”.

B1: HA-tagged PAN3 (S2 cells) (protein, UniProt Q95RR8 1-790)
chain: MCSTYGLLSFEFSDTAAMDPIFFSPTNGIPSESKLATYMNRQNVATPSGYGLNNGFSLLNLDSPLNKKSQVTPQSPEFIPTRLGSTPNFYAPYHNAPMQLSNGLNGVNGLTAAAAAAAAAAAAAAAAVPSSTSSASSASVTISKTANGGASMLALQKTASIASVTIAQQQPQHPQKQQQHPPSVGGGAVSAASAPIAISGAPPNPAAAPFVSSMSAQTPLKGRGAMMRQESPTAAMISGAGPGEKSPPHGMTPHGASPIPSALPTSVHQENVGGTIYFYPTANAQNSQPVVNSMVVDGTHPALHGVSAVAPMSAGVPAAMMYTGHVYPGPSSNVVTMQPKTLLESAFFMPDEMRAEVLARNEISNLIMDAAEAAQHALPLEVENYHALYPLEPPAQPLHAKLTFPATTYRATHNTTGYKYCLRRIHGFRLQSTKCMTLVEMWKKLQHTNVVQLREVFTTKAFGDNSLVLVYDYHPGSQTLLAKYFTPAPETNGYTDPFQGEARPFSHKSNMQRTSNGPLLPEATIWSIIMQLTAGLKAIHHAGLACKVLDPTKIIVTGKRVRFSSCCISDITQFDPNASNPLALVNMHQQDDLTALGRLVLALACRCLQSVQRDNVQSSIDMVTRNYSTDLRNFIVYLFTTNNRRSVTDLMPMIGARFYTQLDALQSKIDMQEDELAKEMENGRLYRILVKLNSINERPDFNLDCTWSETGDRYMLKLFRDYLFHSVTEDGRPWLDHAHIVQCLNKLDAGSIERVQLMSRDEQSVLIVSYAELKNCLENAFSELMSSAAN
For B1, the binding result in assay [4] was “binds”.

B2: HA-tagged NOT2 (S2 cells) (protein, UniProt Q94547 1-585)
chain: MANLNFQQPPRSIANAALAGRTTGGFGGSSLAGHVTPTSGMFQTDFANSYPGTANYGQAPQQQQQQQQQPQLSPNRNAQLSVGGPAISSGNRNANLFGQRQFVERRAMQGLGSGPMSNMGNFMQTGRGGYGTGGGGGGPLNNFHVFGGGGGSDTSTPALLDPTEFPSLTNARGQNDQTLPQSNPLQPPGSKPYGNFFTSFGMVKQPTSEQSEFTMSNEDFPALPGTQNSDGTTNAVGSVAGTGGSGGASTENHLDGTEKPMNSIVVSGSASGSSGSNVGVVGGNGLGAVGSGIGGLAVGGGGGAGSSGGGGVGGNAASGVVGGSHVGLVGSNSGIGGVNSVPNSNAMMGVGGGLGSGSGSSGSGAGGEHLNDNSSNDKLVKSGVQTSPDGKVTNIPATMVNNQFGMVGLLTFIRAAETDPNLVTLSLGTDLTGLGLNLNSQESLHTTFAGPFVAQPCRAQDVEFNVPPEYLINFAIRDKLTAPVLKKLQEDLLFFLFYTNIGDMMQLMAAAELHSREWRYHVEEKIWITRIPGIDQYEKNGTKERGTFYYFDAQSWKRLSKVFQIDPEKLDKCPNISAFMNGQSV
On to B2, for which the binding result in assay [5], in assay [6] and in assay [4] was “binds” in each case.

B3: HA-tagged Me31B (protein, UniProt P23128 1-459)
chain: MMTEKLNSGHTNLTSKGIINDLQIAGNTSDDMGWKSKLKLPPKDNRFKTTDVTDTRGNEFEEFCLKRELLMGIFEKGWERPSPIQEAAIPIALSGKDVLARAKNGTGKTGAYCIPVLEQIDPTKDYIQALVMVPTRELALQTSQICIELAKHLDIRVMVTTGGTILKDDILRIYQKVQLIIATPGRILDLMDKKVADMSHCRILVLDEADKLLSLDFQGMLDHVILKLPKDPQILLFSATFPLTVKNFMEKHLREPYEINLMEELTLKGVTQYYAFVQERQKVHCLNTLFSKLQINQSIIFCNSTQRVELLAKKITELGYCCYYIHAKMAQAHRNRVFHDFRQGLCRNLVCSDLFTRGIDVQAVNVVINFDFPRMAETYLHRIGRSGRFGHLGIAINLITYEDRFDLHRIEKELGTEIKPIPKVIDPALYVANVGASVGDTCNNSDLNNSANEEGNVSK
Turning to B3, the binding entry in assay [4] is “no binding”.
